For two molecules, binding result, EC50 and IC50 results are on record in patent US20230183352A1 (published 2023).

Experiment [1] addresses T1, Biotin QP004.3 (biotin-PDL1-FC) (human, UniProt Q9NZQ7 part only, limits assumed, biotin label, site not stated).
T1 construct: In-house protein QP004.3
The experiment can be described thus: PD-L1 binding ELISA, antibody coated, biotin-PDL1-FC titrated. A general note: In an ELISA, binding on a coated surface is turned into a signal by an enzyme label.

The target in experiment [2] is T2, Biotin QP004.3 (biotin-PDL1-FC) (human, UniProt Q9NZQ7 part only, limits assumed, biotinylated (sites not given)). The experiment is described as above.
Experiment [3] addresses T2, Biotin QP004.3 (biotin-PDL1-FC). As to the kind of experiment: PD-L1/PD-1 blocking ELISA, PD1-FC coated; row labelled EC50; competitor PD1-FC.

T2 sequence (Q9NZQ7 19-238 limits assumed): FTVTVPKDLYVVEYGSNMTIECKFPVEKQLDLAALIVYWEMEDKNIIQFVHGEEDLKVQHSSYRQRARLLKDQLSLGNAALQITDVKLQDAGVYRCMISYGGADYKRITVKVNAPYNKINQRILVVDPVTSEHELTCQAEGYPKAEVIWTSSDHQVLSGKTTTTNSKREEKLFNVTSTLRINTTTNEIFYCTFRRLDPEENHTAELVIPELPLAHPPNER

B1: QP3721116 (bispecific antibody, human IgG1, kappa)
heavy: [here about 100 residues without letters]DSYYYYFWYDYWGQGTLVTVSS[here human IgG1 constant region without letters]GGGSGGGGSGGGGSGGGGSEVQLLESGGGLVQPGGSLRLSCAASGFTYGTYAMSWFRQAPGKGREGVACIDIYGRASYTDPVKGRFTISQDNSKNTLYLQMNSLKAEDTAVYYCAARDFGYCTASWVHEGFSRYWGQGTLVTVSS
light: [here about 100 residues without letters][here about 120 residues without letters]
notes: also called QD3721116 (QP11151116/QP322)
Consider B1, for which the binding result in experiment [1] was “binds”.

B2: QP3721116 (bispecific antibody, human IgG1, kappa)
light: [here about 100 residues without letters][here about 120 residues without letters]
heavy: [here about 100 residues without letters]DSYYYYFWYDYWGQGTLVTVSS[here human IgG1 constant region without letters]GGGSGGGGSGGGGSGGGGSEVQLLESGGGLVQPGGSLRLSCAASGFTYGTYAMSWFRQAPGKGREGVACIDIYGRASYTDPVKGRFTISQDNSKNTLYLQMNSLKAEDTAVYYCAARDFGYCTASWVHEGFSRYWGQGTLVTVSS
notes: Anti-CLDN18.2 IgG with the anti-PD-L1 VHH QP322 at the C-terminal of the heavy chain by linker (G4S)4; also called QD3721116 (QP11151116/QP322)
Regarding B2, in experiment [2], the EC50 (as a rule, the concentration needed to bring the measured effect to its halfway point) came to 5.92 ng/mL. In experiment [3], the IC50 (usually the point on the concentration scale where inhibition reaches its midpoint) was 4.89 nM.
